What is called IC50 is the point on the concentration scale where inhibition reaches its midpoint.

The experiment deals with α-glucosidase. Description: in vitro α-glucosidase enzyme inhibition activity. The settings on record: read-out: α-Glucosidase Inhibition (IC50 in μM), ± SEM.
For `CCn1c(O)c(C(c2ccccc2)c2c(O)n(CC)c(=S)n(CC)c2=O)c(=O)n(CC)c1=S` [Compound 3a, Diethylammonium 5-((1,3-diethyl-6-hydroxy-4-oxo-2-thioxo-1,2,3,4-tetrahydropyrimidin-5-yl)(phenyl)methyl)-1,3-diethyl-6-oxo-2-thioxo-1,2,3,6-tetrahydropyrimidin-4-olate], the IC50 turned out to be 415.8 ± 4 µM.

As for `CCn1c(O)c(C(c2ccc(C)cc2)c2c(O)n(CC)c(=S)n(CC)c2=O)c(=O)n(CC)c1=S` [Compound 3c, Diethylammonium 5-((1,3-diethyl-6-hydroxy-4-oxo-2-thioxo-1,2,3,4-tetrahydropyrimidin-5-yl)(p-tolyl)methyl)-1,3-diethyl-6-oxo-2-thioxo-1,2,3,6-tetrahydropyrimidin-4-olate], the IC50 came out at 200 ± 8.7 µM.

As for `CCn1c(O)c(C(c2ccc(Br)cc2)c2c(O)n(CC)c(=S)n(CC)c2=O)c(=O)n(CC)c1=S` [Compound 3d, Diethylammonium 5-((4-bromophenyl)(1,3-diethyl-6-hydroxy-4-oxo-2-thioxo-1,2,3,4-tetrahydropyrimidin-5-yl)methyl)-1,3-diethyl-6-oxo-2-thioxo-1,2,3,6-tetrahydropyrimidin-4-olate], the IC50 came to 26.8 ± 0.17 µM.

As to `CCn1c(O)c(C(c2ccc([N+](=O)[O-])cc2)c2c(O)n(CC)c(=S)n(CC)c2=O)c(=O)n(CC)c1=S` [Compound 3g, Diethylammonium 5-((1,3-diethyl-6-hydroxy-4-oxo-2-thioxo-1,2,3,4-tetrahydropyrimidin-5-yl)(4-nitrophenyl)methyl)-1,3-diethyl-6-oxo-2-thioxo-1,2,3,6-tetrahydropyrimidin-4-olate], the IC50 is 219 ± 8.4 µM.

With `CCn1c(O)c(C(c2ccc(OC)cc2)c2c(O)n(CC)c(=S)n(CC)c2=O)c(=O)n(CC)c1=S` [Compound 3l, Diethylammonium 5-((1,3-diethyl-6-hydroxy-4-oxo-2-thioxo-1,2,3,4-tetrahydropyrimidin-5-yl)(4-methoxyphenyl)methyl)-1,3-diethyl-6-oxo-2-thioxo-1,2,3,6-tetrahydropyrimidin-4-olate], the IC50 stood at 211 ± 10 µM.

Take “Diethylammonium 5-((1,3-diethyl-6-hydroxy-4-oxo-2-thioxo-1,2,3,4-tetrahydropyrimidin-5-yl)(3-nitrophenyl)methyl)-1,3-diethyl-6-oxo-2-thioxo-1,2,3,6-tetrahydropyrimidin-4-olate [Compound 3h]”: the IC50 was 42.9 ± 0.57 µM.

Regarding “Diethylammonium 5-((1,3-diethyl-6-hydroxy-4-oxo-2-thioxo-1,2,3,4-tetrahydropyrimidin-5-yl)(4-(trifluoromethyl)phenyl)methyl)-1,3-diethyl-6-oxo-2-thioxo-1,2,3,6-tetrahydropyrimidin-4-olate [Compound 3n]”, the half-inhibitory concentration (IC50) was 164 ± 4.5 µM.

“Diethylammonium 5-((1,3-diethyl-6-hydroxy-4-oxo-2-thioxo-1,2,3,4-tetrahydropyrimidin-5-yl)(4-fluorophenyl)methyl)-1,3-diethyl-6-oxo-2-thioxo-1,2,3,6-tetrahydropyrimidin-4-olate [Compound 3m]”: the IC50 amounted to 51.7 ± 2.2 µM.

“Diethylammonium 5-((1,3-diethyl-6-hydroxy-4-oxo-2-thioxo-1,2,3,4-tetrahydropyrimidin-5-yl)(m-tolyl)methyl)-1,3-diethyl-6-oxo-2-thioxo-1,2,3,6-tetrahydropyrimidin-4-olate [Compound 3f]”: the IC50 is 309 ± 6.3 µM.

Consider “Diethylammonium 5-((1,3-diethyl-6-hydroxy-4-oxo-2-thioxo-1,2,3,4-tetrahydropyrimidin-5-yl)(thiophen-2-yl)methyl)-1,3-diethyl-6-oxo-2-thioxo-1,2,3,6-tetrahydropyrimidin-4-olate [Compound 3k]”, for which the IC50 is 102 ± 2 µM.

Take “Diethylammonium 5-((2,6-dichlorophenyl)(1,3-diethyl-6-hydroxy-4-oxo-2-thioxo-1,2,3,4-tetrahydropyrimidin-5-yl)methyl)-1,3-diethyl-6-oxo-2-thioxo-1,2,3,6-tetrahydropyrimidin-4-olate [Compound 3j]”: the IC50 was determined as 162 ± 6.2 µM.

These data come from patent US9527820B1, “Diethylammonium salts of phenyl-substituted thiobarbituric acid as anti-diabetic agents” (KING SAUD UNIVERSITY, priority 2016, dated 2016).
